Source: PubChem BioAssay AID504706 (National Center for Advancing Translational Sciences (NCATS), 2011)
Among all 320,000 compounds or so, about 200 (0.062%) were called active. The inconclusive results got no clear call from the source; some entries with a clear call stand among them for comparison. The call rests on the fitted dose curve; in most records, active means well fitted activation curve with a large enough effect; inconclusive means small, poorly fitted or top-dose-only effect; inactive means no such curve, though single readings can be large or run the other way. No potency is given beside an inconclusive call; the fits are too rough.

Test: qHTS assay for re-activators of p53 using a Luc reporter; further: nearly all actives have a fitted effect of over 45% in size
Details: H1299 p53-A138V BP100-luciferase reporter, luminescence, 24 h; series mostly up to 92.2 µM
Procedure, shortened: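 p53-null H1299 cells stably carrying temperature-sensitive p53-A138V and a BP100-luciferase reporter were pinned with compounds (4-point, 1:5 series) and held 24 hrs at 37 deg C. Luminescence was read 10 min after detection reagent.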
Potency means the concentration at half of the fitted maximal effect; tags describe the fitted curve by direction and shape.

| SMILES | Potency |
| --- | --- |
| Cc1ccc(S(=O)(=O)CCc2nnc(NC(=O)c3ccccn3)s2)cc1 | inconclusive [activator, single point] |
| O=[N+]([O-])c1cccc2ccc(/C=C/c3ccc(F)cc3)nc12 | inconclusive [activator, partial curve, poor fit] |
| Cc1cc(S(=O)(=O)N2CCCC2)ccc1OCC(=O)NC1CCCC1 | inactive |
| O=c1[nH]c2c(s1)C(c1ccco1)C1C3CCC(C3)C1S2 (centres undefined) | inconclusive [activator, partial curve, poor fit] |
| Cc1cccc(-c2noc(Cc3ccccc3)n2)c1 | inconclusive [activator, partial curve, poor fit] |
| Cc1cccc(NC(=O)/C=C/c2cccs2)n1 | inactive |
| CN(CC(=O)Nc1ccc(F)cc1)C(=O)c1ccc(OCc2cn3ccccc3n2)cc1 | inconclusive [activator, single point] |
| C[C@@H]1CN([C@@H](C)CO)C(=O)c2cc(NC(=O)CCN3CCOCC3)ccc2O[C@@H]1CN(C)C(=O)Nc1ccccc1 | inactive |
| Cc1ccc(N2C(N)=C(C#N)C(c3cc(CN4CCOCC4)cs3)C3=C2CC(C)(C)CC3=O)cc1 (centres undefined) | inactive |
| CCCn1c(NCc2ccc3c(c2)OCO3)nc2ccccc21 | inconclusive [activator, single point] |
| CC(C)/C=C/CN1CCC(Oc2ccc(C(=O)N3CCCC3)cc2)CC1 | inconclusive [activator, single point] |
| Cc1ccc(S(=O)(=O)N/N=C/c2cc(Br)c(C)o2)cc1 | inconclusive [activator, single point] |
| COc1ccc(N/C=C(\C#N)S(=O)(=O)c2ccc(Cl)cc2)c(OC)c1 | inactive |
| O=C(O)c1ccc(NC(=O)C2C3CCC(O3)C2C(=O)O)cc1 (centres undefined) | inconclusive [activator, partial curve, poor fit] |
| CNc1c(N=Cc2cccnc2)c(=O)n(C)c(=O)n1C | inactive |
| O=C1N=c2ccccc2=C1c1sc(Nc2ccc(O)cc2)nc1O | inconclusive [activator, partial curve, poor fit] |
| O=C(Nc1ccc2c(c1)ncn2-c1ccccc1)c1ccco1 | inconclusive [activator, partial curve, poor fit] |
| Cc1cc(NC(=S)NC(=O)C2CC2)ccc1Br | inconclusive [activator, partial curve, poor fit] |
| CCN(CC(=O)Nc1ccc2c(c1)OCCO2)C(=O)CCOc1ccccc1 | inconclusive [activator, single point] |
